Test results published in the supplement of paper PMC4967469.

Compound: Cn1cc(C2=C(c3cn(C4CCN(Cc5ccccn5)CC4)c4ccccc34)C(=O)NC2=O)c2ccccc21 [LY317615]
Experiment: Viability of human cancer cell lines after 72 h of drug (GDSC screen)
Conditions: top dose inferred
Protocol: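 Human cancer cell lines in 384-well plates, medium with 10% serum, drug for 72 h over a 256-fold dose range (nine 2-fold or five 4-fold steps up to the top dose). Adherent lines were fixed and stained with the nucleic acid dye Syto60, suspension lines read with resazurin; signal relative to control wells, capped at 0 and 100%. One two-parameter sigmoid per drug and line, fitted in a mixed model over all curves with the slope shared within a line.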

Cell Line	AUC	IC50
GMS-10 (glioma, adherent, top dose 20 µM)	0.987	> 20 µM
GOTO (neuroblastoma, adherent, top dose 20 µM)	0.93	> 20 µM
GP5d (large intestine, adherent, top dose 20 µM)	0.788	7.8 µM
GR-ST (lymphoblastic leukaemia, suspension, top dose 20 µM)	0.866	> 20 µM
GRANTA-519 (B-cell lymphoma, suspension, top dose 20 µM)	0.732	5.26 µM
GT3TKB (stomach, adherent, top dose 20 µM)	0.985	> 20 µM
H4 (glioma, adherent, top dose 20 µM)	0.808	10.2 µM
H9 (lymphoid neoplasm, suspension, top dose 20 µM)	0.719	4.55 µM
H290 (mesothelioma, adherent, top dose 20 µM)	0.948	> 20 µM
H513 (mesothelioma, semi-adherent, top dose 20 µM)	0.905	> 20 µM
H2369 (mesothelioma, adherent, top dose 20 µM)	0.968	> 20 µM
H2373 (mesothelioma, adherent, top dose 20 µM)	0.975	> 20 µM
H2461 (mesothelioma, adherent, top dose 20 µM)	0.756	8.42 µM
H2591 (mesothelioma, adherent, top dose 20 µM)	0.928	> 20 µM
H2595 (mesothelioma, adherent, top dose 20 µM)	0.667	4.39 µM
H2722 (mesothelioma, adherent, top dose 20 µM)	0.984	> 20 µM
H2731 (mesothelioma, adherent, top dose 20 µM)	0.96	> 20 µM
H2795 (mesothelioma, adherent, top dose 20 µM)	0.89	> 20 µM
H2803 (mesothelioma, adherent, top dose 20 µM)	0.821	14.1 µM
H2804 (mesothelioma, adherent, top dose 20 µM)	0.43	0.789 µM
H2818 (mesothelioma, adherent, top dose 20 µM)	0.967	> 20 µM

Cell Line	AUC	IC50
H2869 (mesothelioma, adherent, top dose 20 µM)	0.734	6.92 µM
H3118 (head and neck, adherent, top dose 20 µM)	0.735	6.31 µM
H3255 (lung adenocarcinoma, adherent, top dose 20 µM)	0.835	16.9 µM
H-EMC-SS (chondrosarcoma, adherent, top dose 20 µM)	0.943	> 20 µM
HA7-RCC (kidney, adherent, top dose 20 µM)	0.898	> 20 µM
HAL-01 (lymphoblastic leukaemia, suspension, top dose 20 µM)	0.398	0.682 µM
HARA (lung squamous cell carcinoma, adherent, top dose 20 µM)	0.687	4.59 µM
HC-1 (hairy cell leukaemia, suspension, top dose 20 µM)	0.823	11.2 µM
HCC38 (breast, adherent, top dose 20 µM)	0.891	> 20 µM
HCC70 (breast, adherent, top dose 20 µM)	0.929	> 20 µM
HCC202 (breast, adherent, top dose 20 µM)	0.912	> 20 µM
HCC1143 (breast, adherent, top dose 20 µM)	0.716	6.6 µM
HCC1187 (breast, suspension, top dose 20 µM)	0.912	> 20 µM
HCC1395 (breast, adherent, top dose 20 µM)	0.877	> 20 µM
HCC1419 (breast, adherent, top dose 20 µM)	0.817	17.8 µM
HCC1428 (breast, adherent, top dose 20 µM)	0.95	> 20 µM
HCC1500 (breast, adherent, top dose 10.24 µM)	0.923	> 10.2 µM
HCC1569 (breast, adherent, top dose 20 µM)	0.667	4.27 µM
HCC1599 (breast, suspension, top dose 20 µM)	0.765	8.33 µM
HCC1806 (breast, adherent, top dose 20 µM)	0.947	> 20 µM
HCC1937 (breast, adherent, top dose 20 µM)	0.725	6.07 µM

Cell Line	AUC	IC50
HCC1954 (breast, adherent, top dose 20 µM)	0.567	1.96 µM
HCC2157 (breast, suspension, top dose 20 µM)	0.967	> 20 µM
HCC2218 (breast, suspension, top dose 20 µM)	0.579	2.17 µM
HCC2998 (large intestine, adherent, top dose 20 µM)	0.893	> 20 µM
HCC-15 (lung squamous cell carcinoma, adherent, top dose 20 µM)	0.793	12.1 µM
HCC-33 (small cell lung carcinoma, adherent, top dose 20 µM)	0.928	> 20 µM
HCC-44 (lung adenocarcinoma, adherent, top dose 20 µM)	0.435	0.834 µM
HCC-56 (large intestine, adherent, top dose 20 µM)	0.695	4.47 µM
HCC-78 (lung adenocarcinoma, adherent, top dose 20 µM)	0.727	6.25 µM
HCC-827 (lung adenocarcinoma, adherent, top dose 20 µM)	0.967	> 20 µM
HCE-4 (oesophagus, adherent, top dose 20 µM)	0.98	> 20 µM
HCT-15 (large intestine, adherent, top dose 20 µM)	0.843	15.5 µM
HCT-116 (large intestine, adherent, top dose 20 µM)	0.837	12.5 µM
HD-MY-Z (Hodgkin lymphoma, adherent, top dose 20 µM)	0.838	13.6 µM
HDLM-2 (Hodgkin lymphoma, suspension, top dose 20 µM)	0.837	13.1 µM
HDQ-P1 (breast, adherent, top dose 20 µM)	0.888	> 20 µM
HEC-1 (endometrium, adherent, top dose 20 µM)	0.939	> 20 µM
HEL (acute myeloid leukaemia, semi-adherent, top dose 20 µM)	0.83	9.77 µM
HGC-27 (stomach, adherent, top dose 20 µM)	0.942	> 20 µM

The IC50 comes from the fitted curve, where viability falls to half of the control; a fit beyond the top or the lowest dose is shown as a bound at that dose. For AUC the same curve is integrated over the 256-fold range of doses and scaled to a fraction; values near 1 show little effect. A top dose marked as inferred is not printed in the source and was worked back from the curve model.
